About 4,700 (1.2%) of roughly 390,000 compounds were called active. Inconclusive results, whose numbers are uncertain, are shown with a selection of clear calls. Calls come from the whole dose curve; as a rule, active = well fitted inhibition curve with a large enough effect; inconclusive = small, poorly fitted or top-dose-only effect, or another doubt; inactive = no such curve, though single readings can be large or run the other way. Potencies beside an inconclusive call are fits to weak or partial responses and may not hold up. The source holds several records for some structures; these can differ, active in one and inactive in another.
target: DNA polymerase eta (Homo sapiens) (UniProt Q9Y253); assay: qHTS for Inhibitors of Polymerase Eta; conditions: recombinant Pol eta, fluorescent DNA replication assay; series mostly up to 114 µM; activity change, negative = inhibition: at the top concentration
Sequence of UniProt Q9Y253 (Q9Y253 whole entry, looked up): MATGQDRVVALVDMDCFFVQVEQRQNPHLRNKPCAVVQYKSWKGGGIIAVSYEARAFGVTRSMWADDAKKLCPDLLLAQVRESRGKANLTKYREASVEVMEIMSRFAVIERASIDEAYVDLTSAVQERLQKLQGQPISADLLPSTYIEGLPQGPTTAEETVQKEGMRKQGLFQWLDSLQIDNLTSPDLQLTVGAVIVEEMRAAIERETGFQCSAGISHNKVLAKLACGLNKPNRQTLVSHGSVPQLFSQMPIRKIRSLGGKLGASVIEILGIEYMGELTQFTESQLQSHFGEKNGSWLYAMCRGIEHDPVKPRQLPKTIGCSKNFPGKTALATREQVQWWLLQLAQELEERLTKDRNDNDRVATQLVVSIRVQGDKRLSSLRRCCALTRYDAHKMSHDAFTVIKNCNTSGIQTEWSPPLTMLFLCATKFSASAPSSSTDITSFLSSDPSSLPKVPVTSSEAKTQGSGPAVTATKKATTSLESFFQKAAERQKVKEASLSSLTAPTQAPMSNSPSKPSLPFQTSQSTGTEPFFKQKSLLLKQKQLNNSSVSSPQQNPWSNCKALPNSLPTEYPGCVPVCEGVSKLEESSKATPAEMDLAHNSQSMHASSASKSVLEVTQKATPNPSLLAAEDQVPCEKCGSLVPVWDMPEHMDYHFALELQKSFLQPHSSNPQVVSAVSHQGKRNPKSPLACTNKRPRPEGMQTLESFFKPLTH
Procedure, shortened: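 Pol eta (10 nM) was preincubated with compounds for 15 min at room temperature, after which fluorescent replication substrate (50 nM final) was added to start the reaction. Fluorescence was read kinetically at 0 and 10 min.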
% is set by controls: 0 for no effect and ±100 for the full control effect; potency is the fitted concentration of half-maximal effect; tags give direction and shape of the fitted curve.

Row | Compound | Potency | activity change, negative = inhibition
1 | O=C1C=C(Nc2ccc(O)cc2)C(=O)c2ccccc21 | inconclusive: 20 µM [inhibitor, full curve, poor fit] | –
2 | CCOC(=O)c1c(NC(=O)/C=C/C(=O)O)sc(C)c1-c1ccc(C(C)(C)C)cc1 | active: 22.4 µM | –
3 | COc1ccc(OC)c(NC(=O)c2ccc3c(SCC(=O)O)c4c(nc3c2)CCCC4)c1 | inconclusive: 100 µM [inhibitor, single point] | –
4 | COc1ccc(CCn2c(=O)c3cccnc3n(CC(=O)Nc3c(C)cccc3C)c2=O)cc1OC | – | inactive: -14.7%
5 | CCc1cccc(C)c1NC(=O)Cn1c(=O)n(-c2ccc(C)cc2)c(=O)c2c1cnn2C | – | inactive: -9.16%
6 | CC(=O)Nc1ccc(NC(=O)CS(=O)(=O)c2cn(CC(=O)N3CCCC3)c3ccccc23)cc1 | inconclusive: 28.2 µM [inhibitor, partial curve, poor fit] | –
7 | COc1ccc(-c2nnc(SCC(=O)Nc3cc(OC)ccc3OC)nc2-c2ccc(OC)cc2)cc1 | – | inactive: -16.4%
8 | Cc1cc(C(=O)O)ccc1-c1ccc(/C=C2\NC(=O)N(Cc3ccccc3Cl)C2=O)o1 | active: 4.47 µM | –
9 | Cn1cccc1Cc1nnc(SCC(=O)NC2CCCC2)n1-c1ccc(F)cc1 | inconclusive: 100 µM [inhibitor, partial curve, poor fit] | –
10 | Cc1ccc(Nc2ccc(N)cc2S(=O)(=O)O)cc1 | active: 39.8 µM | –
11 | Cc1ccc2c(=O)cc(C(=O)Nc3c(C(=O)c4ccc(F)cc4)oc4ccccc34)oc2c1C | – | inactive: 7.01%
12 | Cc1ccccc1CSCC(=O)NNC(=S)NCC1CCCO1 (centres undefined) | – | inactive: -10.9%
13 | O=C(N=Nc1c(O)n(Cc2ccccc2)c2ccccc12)c1cc2ccccc2cc1O | inconclusive: 22.4 µM [inhibitor, full curve] | –
14 | O=c1[nH]cc(CCc2ccccc2)c(=O)[nH]1 | – | inactive: -13%
15 | COc1cc(Cl)c(C)cc1NC(=O)CSc1sc2c(O)cc(=O)[nH]c2c1C#N | active: 28.2 µM | –
16 | Cc1cc(C)nc(-n2nc(C)c(Oc3ccccc3O)c2C)n1 | inconclusive: 35.5 µM [inhibitor, single point] | –
17 | CCSc1ccc(C(=O)Nc2cccc(C)n2)cc1[N+](=O)[O-] | inconclusive: 14.1 µM [inhibitor, partial curve] | –
18 | O=C(CCc1nnc2ccc(NCc3ccco3)nn12)N1CCN(c2ccccc2F)CC1 | inconclusive: 44.7 µM [inhibitor, partial curve] | –
19 | O=C(Nc1ccc(S(=O)(=O)Nc2nccs2)cc1)c1nn(-c2ccccc2)ccc1=O | active: 6.31 µM | –
20 | c1csc(C2C3=C(Nc4ncnn42)c2ccccc2OC3)c1 (centres undefined) | inconclusive: 39.8 µM [inhibitor, single point] | –
21 | Cc1ccc(NC(=O)CN2C(=O)N/C(=C/c3cc(C)n(-c4ccc(C(=O)O)cc4)c3C)C2=O)cc1 | active: 22.4 µM | –
22 | CCc1ccc(-c2nc(SCC(=O)N(CC)C3CCS(=O)(=O)C3)n[nH]2)cc1 (centres undefined) | inconclusive: 100 µM [inhibitor, single point] | –
23 | O=C(CSc1nc2ccccc2c(=O)[nH]1)N1CCOCC1 | – | inactive: 8.91%

Row | Compound | Potency | activity change, negative = inhibition
24 | N=C1CCC(=N)c2c1c(O)c1ccccc1c2O | active: 12.6 µM | –
25 | CCOc1cccc(=O)c2c(C)n(Cc3ccccc3)c(C)c12 | – | inactive: -19.6%
26 | CC(=O)n1cc(N(C(=O)CCl)c2ccc(Cl)cc2)c2ccccc21 | active: 28.2 µM | –
27 | O=C(c1cccs1)N1CCN(Cc2ccncc2)CC1 | – | inactive: 2.46%
28 | CCc1cc(=O)[nH]c(SCc2nc(-c3ccc(C(F)(F)F)cc3)no2)n1 | – | inactive: 13.1%
29 | CN1CCc2c(sc(/N=C/c3c[nH]c4ccccc34)c2C(N)=O)C1 | – | inactive: 4.04%
30 | CC(=O)c1ccc(N2CCN(CC3CCCCC3)CC2)cc1 | – | inactive: -17.1%
31 | CCOc1cc2[nH]c(=S)n(Cc3ccc(C(=O)NCCOC)cc3)c(=O)c2cc1OCC | inconclusive: 39.8 µM [inhibitor, single point] | –
32 | CCOc1ccc(CCNC(=O)c2nnn(CC(=O)Nc3ccc(C)cc3)c2N)cc1OCC | – | inactive: -0.827%
33 | COc1ccc(NC(=O)CSCc2cc(=O)n3cc(C)sc3n2)cc1 | – | inactive: 0.15%
34 | COC(=O)C1=C(C)N(Cc2ccccc2)C(=NCc2ccc(OC)cc2)N[C@H]1c1ccccc1 | inconclusive: 89.1 µM [inhibitor, partial curve, poor fit] | –
35 | O=C(C1CC1)N1CCc2cc(S(=O)(=O)NC3CCN(Cc4ccccc4)CC3)ccc21 | inconclusive: 3.55 µM [inhibitor, partial curve, poor fit] | –
36 | Cc1ccc(/C=C/C(=O)Nc2cccc3cccnc23)o1 | inconclusive: 35.5 µM [inhibitor, single point] | –
37 | O=C(OCC(=O)N1CCOCC1)c1cccc(S(=O)(=O)N2CCCc3ccccc32)c1 | inconclusive: 89.1 µM [inhibitor, partial curve, poor fit] | –
38 | CN(CCc1ccccc1)C(=O)c1ccc(NC(=O)Cc2ccc(NC(=O)C3CCN(C(=O)CCc4ccccc4)CC3)cc2)cc1 | – | inactive: -23.2%
39 | COc1cccc(-c2ccc(-c3noc(-c4cccs4)n3)c(OC)n2)c1 | inconclusive: 79.4 µM [inhibitor, partial curve, poor fit] | –
40 | Cc1ccccc1CSc1nnc(-c2ccccc2)c(=O)[nH]1 | – | inactive: -1.43%
41 | COc1cc(NC(=O)CSc2ncnc3sc4c(c23)CCC(C)C4)c(C(=O)O)cc1OC (centres undefined) | inconclusive: 20 µM [inhibitor, full curve] | –
42 | Cc1ccccc1N=Cc1cc2c(cc1O)OC(N)=C(C#N)C2c1ccccc1 (centres undefined) | inconclusive: 14.1 µM [inhibitor, full curve, poor fit] | –
43 | CCOC(=O)C1CCN(C(=O)c2cnn3c(C)cc(C)nc23)CC1 | inconclusive: 0.708 µM [inhibitor, full curve, poor fit] | –
44 | CCOc1cc(N2CCOCC2)c(OCC)cc1NS(=O)(=O)c1cc(NC(C)=O)ccc1OC | inconclusive: 56.2 µM [inhibitor, partial curve] | –
45 | Cc1cc(C)c2cc(C#N)c(SCC(=O)NCc3ccco3)nc2c1 | inconclusive: 14.1 µM [inhibitor, partial curve, poor fit] | –
46 | COc1ccc(CNC(=O)c2cccn2-c2nnc(N3CCCCC3)s2)c(OC)c1 | – | inactive: -5.56%

Row | Compound | Potency | activity change, negative = inhibition
47 | COc1ccc(CCNC(=O)CS(=O)(=O)Cc2nc(-c3cccc(Cl)c3)oc2C)cc1OC | – | inactive: -9.08%
48 | CCC(=O)NC(=S)NNC(=O)c1ccccc1[N+](=O)[O-] | – | inactive: -0.558%
49 | Cc1ccc(SC2=C(N(C)C)C(=O)c3ccccc3C2=O)cc1 | active: 8.91 µM | –
50 | CCOC(=O)c1ccc(NC(=O)Cn2ncc(Cl)c(Cl)c2=O)cc1 | inconclusive: 89.1 µM [inhibitor, partial curve, poor fit] | –
51 | O=C(O)CC1S/C(=N/N=C/c2ccc(-c3ccc(Cl)cc3[N+](=O)[O-])o2)NC1=O (centres undefined) | inconclusive: 12.6 µM [inhibitor, full curve] | –
52 | COc1ccc(-n2c(C)cc(/C=C3\C(=N)N4N=C(CC(=O)N5CCOCC5)SC4=NC3=O)c2C)c(OC)c1 | active: 39.8 µM | –
53 | CC1(C)CC(=O)C2=C(C1)Nc1ccccc1NC2c1ccc(F)cc1 (centres undefined) | – | inactive: -0.331%
54 | O=C(O)c1cc(-c2ccc(-c3c(-c4ccc5c(c4)OCO5)noc3-c3ccsc3)cc2)nc2ccccc12 | active: 79.4 µM | –
55 | CCOC(=O)N1CCC(NC(=O)C2CCCN(Cc3nc(-c4cccc(C)c4)oc3C)C2)CC1 (centres undefined) | inconclusive: 89.1 µM [inhibitor, partial curve, poor fit] | –
56 | COc1cc2c(cc1OC)C(c1cccc([N+](=O)[O-])c1)N(C(=O)c1ccc(F)cc1)CC2 (centres undefined) | inconclusive: 50.1 µM [inhibitor, partial curve, poor fit] | –
57 | O=C1/C(=C\c2cc(Cl)c(O)c(Cl)c2)SC(=S)N1Cc1ccccc1 | active: 50.1 µM | –
58 | CCOC(=O)C1CCC(CN(Cc2ccc(OC)cc2)S(=O)(=O)c2ccc(F)c(C(=O)Nc3c(C)cccc3C)c2)CC1 (centres undefined) | – | inactive: 7.42%
59 | O=C(Cc1cnn(-c2ccccc2)c1)c1ccc(O)c(O)c1O | inconclusive: 5.01 µM [inhibitor, full curve] | –
60 | COc1ccc(CNC(=O)Cc2c(C)c3c(cc(C)c4c(C)c(C)oc43)oc2=O)cc1OC | – | inactive: -10.9%
61 | CCN(CC)S(=O)(=O)c1ccc2c(c1)N(CC(=O)NCCCN1CCN(c3cc(Cl)ccc3C)CC1)C(=O)CO2 | inconclusive: 50.1 µM [inhibitor, partial curve, poor fit] | –
62 | Cc1cc(=O)oc2cc(OCC(=O)Nc3ccc(O)c(C(=O)O)c3)ccc12 | inconclusive: 89.1 µM [inhibitor, partial curve, poor fit] | –
63 | Oc1ccc(NCc2ccc(OCc3ccccc3)cc2)cc1 | active: 79.4 µM | –
64 | COc1ccc2o/c(=N\O)c(C(=O)Nc3ccccc3OC)cc2c1 | inconclusive: 25.1 µM [inhibitor, partial curve] | –
65 | CCC(=O)N1CCc2cc(Br)cc(S(=O)(=O)CCC(=O)Nc3cccc(C)c3C)c21 | inconclusive: 100 µM [inhibitor, single point] | –
66 | COc1ccc(C(=O)/C=C/c2cn(CC(O)CN3CCOCC3)c3ccccc23)cc1 (centres undefined) | inconclusive: 39.8 µM [inhibitor, full curve, poor fit] | –
67 | Cc1nn(-c2ccccc2)c2sc(C(=O)OC3CCOC3=O)cc12 (centres undefined) | inconclusive: 28.2 µM [inhibitor, partial curve, poor fit] | –
68 | Cc1ccc(CNC(=O)c2cc3c(s2)-c2c(C)cccc2OC3)cc1 | – | inactive: -19.1%
69 | COc1cc2c(cc1OC)C(c1ccc3c(c1)OCO3)C1=C(CC(C)(C)CC1=O)N2 (centres undefined) | inconclusive: 25.1 µM [inhibitor, partial curve, poor fit] | –
